The values below come from PubChem BioAssay AID1745853 (National Center for Advancing Translational Sciences (NCATS), 2022).

Common to all, as to assay: Primary Screen for Target Class Profiling of Small Molecule Inhibitors of Methyltransferases
Assay [1] deals with Glycine N-methyltransferase (Homo sapiens) (UniProt Q14749). Conditions: purified enzyme, MTase-Glo SAH luminescence; measured here: GNMT inhibition; at 40 µM; stronger effect = lower value. The essentials: (§1)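 Each enzyme was reacted with SAM and its substrate, with compounds tested once at 40 uM; SAH formed was read by MTase-Glo luminescence.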
In assay [2] the target is Guanidinoacetate N-methyltransferase (Homo sapiens) (UniProt Q14353). As to conditions: purified enzyme, MTase-Glo SAH luminescence; measured here: GAMT inhibition; at 40 µM; stronger effect = lower value. The essentials: as §1
The target in assay [3] is Histamine N-methyltransferase (Homo sapiens) (UniProt P50135). Conditions: purified enzyme, MTase-Glo SAH luminescence; measured here: HNMT inhibition; at 40 µM; stronger effect = lower value. The essentials:
as §1

For assay [4], the target named is Nicotinamide N-methyltransferase (Homo sapiens) (UniProt P40261). As to conditions: purified enzyme, MTase-Glo SAH luminescence; measured here: NNMT inhibition; at 40 µM; stronger effect = lower value. The essentials: as §1
In assay [5] the target is Phenylethanolamine N-methyltransferase (Homo sapiens) (UniProt P11086). Conditions: purified enzyme, MTase-Glo SAH luminescence; measured here: PNMT inhibition; at 40 µM; stronger effect = lower value. An outline of the steps:
as §1

The structures appear in SMILES notation. This is one part of the list. Further columns of the screen follow, without active or inactive calls.
% is scaled to controls: 0 for no effect and ±100 for the full control effect.

For `O=C(c1ccccc1C(F)(F)F)N1CCc2nc3cc[nH]n3c(=O)c2C1`, the activity change, negative = inhibition in assay [1] was -11.1%; in assay [2] it was -8.59%; in assay [3], -1.79%; in assay [4], -3.95%; in assay [5] it was -16.2%.

On to `COC[C@H]1NC(=O)CC[C@H]1C(=O)O`, for which the activity change, negative = inhibition in assay [1] was -3.8%; in assay [2], -3.69%; in assay [3] it was 0.995%; in assay [4], -9.4%; in assay [5] it was 8.71%.

For `Cc1nc(C(=O)N2CC[C@H](NS(=O)(=O)c3cn(C)cn3)C[C@H]2C(=O)N[C@H](Cc2ccccc2)C(N)=O)cs1`, the activity change, negative = inhibition was 1.47% in assay [1]; -3.88% in assay [2]; 3.46% in assay [3]; -0.167% in assay [4]; 0.678% in assay [5].

As to `CCCN(CC1CCOC1)S(=O)(=O)c1cc(F)ccc1C` (stereo not given), the activity change, negative = inhibition in assay [1] was -1.92%; in assay [2] it was 0.946%; in assay [3], 2.63%; in assay [4] it was -7.48%; in assay [5] it was -2.52%.

With `CC(C)n1nnc2cc(S(=O)(=O)N(C)CC(=O)N3CCN(c4ccccn4)CC3)ccc21`, the activity change, negative = inhibition in assay [1] was -3.31%; in assay [2], 3.15%; in assay [3], 5.53%; in assay [4] it was -4.58%; in assay [5] it was 3.91%.

With `CC1CCCC(NC(=O)CCn2ccc3cc(S(=O)(=O)N4CCCC4)ccc32)C1C` (stereo not given), the activity change, negative = inhibition in assay [1] was 3.15%; in assay [2], 0.351%; in assay [3], 1.81%; in assay [4] it was -1.29%; in assay [5], 1.27%.

Take `Cc1cc(C)c(S(=O)(=O)n2cc(C)cc2C)c(C)c1`: the activity change, negative = inhibition in assay [1] is -7.99%; in assay [2], -8.58%; in assay [3], 3.1%; in assay [4], -69.2%; in assay [5] it was -5%.

As to `Cc1cccc(-c2n[nH]n3c2nc(=O)c2ccc(C(=O)NCc4ccc(F)cc4)cc23)c1`, the activity change, negative = inhibition is -19.2% in assay [1]; 2.18% in assay [2]; -5.43% in assay [3]; -8.68% in assay [4]; -5.82% in assay [5].

Take `CC(C)NC(=O)c1ccc2c(=O)n(Cc3ccccc3)c3nn(CC(=O)NC4CCCCC4)c(=O)n3c2c1`: the activity change, negative = inhibition turned out to be 0.369% in assay [1]; 2.91% in assay [2]; 4.61% in assay [3]; 0.895% in assay [4]; 1.7% in assay [5].

For the compound `CCC(C)/C=C(C)/C=C/C1=CC2=C(Cl)C(=O)C(C)(OC(C)=O)C(=O)C2=CN1C(CC(=O)O)C(=O)O` (stereo not given), the activity change, negative = inhibition was -9.04% in assay [1]; -9.39% in assay [2]; -0.634% in assay [3]; -16.7% in assay [4]; -8.86% in assay [5].

Turning to `Cc1[nH]c2ccccc2c1CCNCc1ccc(/C=C/C(=O)NO)cc1`, the activity change, negative = inhibition in assay [1] is 4.64%; in assay [2] it was 1.05%; in assay [3] it was -73.3%; in assay [4] it was -14.5%; in assay [5], -5.88%.

Consider `N[C@@H](Cc1ccc(O)c(I)c1)C(=O)O`, for which the activity change, negative = inhibition in assay [1] is 3.39%; in assay [2], 9.99%; in assay [3], 1.93%; in assay [4], -7.04%; in assay [5], 2.06%.

`CCc1cc(C(=O)N2CCC(n3nccc3NC(=O)CCOc3ccccc3)CC2)no1`: the activity change, negative = inhibition in assay [1] is -0.508%; in assay [2] it was -4.42%; in assay [3], 1.07%; in assay [4], -2.82%; in assay [5] it was 0.753%.

As to `C[S+](=O)([O-])N1CCn2ncc(C(=O)NCc3ccc(Cl)nc3)c2C1`, the activity change, negative = inhibition in assay [1] is -3.48%; in assay [2] it was -6.78%; in assay [3] it was -1.91%; in assay [4], -7.01%; in assay [5], -2.12%.

As for `CC(C)CN1CC(C(=O)NCc2nc(-c3ccccc3)no2)CC1=O` (stereo not given), the activity change, negative = inhibition is -2.57% in assay [1]; -7.6% in assay [2]; -2.18% in assay [3]; -11.2% in assay [4]; 4.82% in assay [5].

As for `CCn1c(=O)n(CC)c2cc(S(=O)(=O)Nc3cccc(OC)c3)ccc21`, the activity change, negative = inhibition in assay [1] is 5.28%; in assay [2], 1.67%; in assay [3] it was 2.47%; in assay [4], -12.5%; in assay [5] it was 4.24%.

With `Cc1ccc(-c2ccccc2CN2CCN(C(=O)c3ccc(C(F)(F)F)cc3)CC2)cc1Cl`, the activity change, negative = inhibition was -7.98% in assay [1]; -12.8% in assay [2]; -5.21% in assay [3]; -13.7% in assay [4]; -12.7% in assay [5].

`C=CC(=O)Nc1ccc(CN2C(=O)N(c3cc(OC)cc(OC)c3)Cc3cnc(Nc4ccc(N5CCN(C)CC5)cc4)nc32)cc1`: the activity change, negative = inhibition in assay [1] was -6.25%; in assay [2] it was 0.886%; in assay [3], -55.3%; in assay [4], -6.07%; in assay [5], 2.36%.

`COc1ccccc1CNC(=O)C1(C)Cn2cnc(C(=O)N3CCCC3)c2C(=O)N1C1CC1` (stereo not given): the activity change, negative = inhibition in assay [1] amounted to 2.73%; in assay [2], 0%; in assay [3] it was 9.38%; in assay [4], 8.24%; in assay [5], 6.18%.

Regarding `O=C(c1csc(Cc2ccccc2)n1)N1CCC2(CCCNC2)C1` (stereo not given), the activity change, negative = inhibition in assay [1] is -2.4%; in assay [2] it was 0.637%; in assay [3], -2.85%; in assay [4], -3.34%; in assay [5] it was -3.79%.

In the case of `O=C(CCc1nnc2ccc(-c3ccc(Cl)cc3)nn12)N1CCC(Cc2ccccc2)CC1`, the activity change, negative = inhibition in assay [1] was -17.7%; in assay [2], 4.34%; in assay [3] it was -8.06%; in assay [4] it was -15.6%; in assay [5] it was -9.01%.

For `CC(C)NC(=O)N[C@H]1CCN(C(=O)c2cnccn2)[C@@H]1C(=O)N[C@@H](CCCNC(=O)c1cnccn1)C(N)=O`, the activity change, negative = inhibition was -1.62% in assay [1]; -4.91% in assay [2]; -1.35% in assay [3]; -9.86% in assay [4]; -3.28% in assay [5].

For the compound `NC(=O)[C@H](Cc1cccs1)NC(=O)[C@@H]1C[C@@H](NC(=O)c2cnccn2)CCN1C(=O)COCC(=O)O`, the activity change, negative = inhibition in assay [1] is -0.417%; in assay [2], -2.26%; in assay [3], -0.918%; in assay [4] it was -1.8%; in assay [5], 0.791%.

Turning to `CCOc1ccc(C(=O)Cn2nc3n(C(C)C)c(=O)c4ccc(C(=O)NC5CCCC5)cc4n3c2=O)cc1`, the activity change, negative = inhibition in assay [1] turned out to be 5.57%; in assay [2] it was 0%; in assay [3], 11.4%; in assay [4], 7.57%; in assay [5], 7%.

Take `CC(=O)Nc1c2n(c3ccc(F)cc13)CC(C)(C(=O)NCCC(C)C)N(C1CCCC1)C2=O` (stereo not given): the activity change, negative = inhibition in assay [1] was 2.22%; in assay [2] it was 0.901%; in assay [3], 3.73%; in assay [4], 4.54%; in assay [5] it was -1.71%.

Consider `CC(O)(C(=O)O)C1CCC2(C)C1CCC1(C)C2CCC2C3(C)CCC(O)C(C)(COC4OC(CO)C(O)C(O)C4O)C3CCC21C` (stereo not given), for which the activity change, negative = inhibition in assay [1] is -1.56%; in assay [2], -14.7%; in assay [3], 4.38%; in assay [4], -25%; in assay [5] it was -5.13%.

Take `Cc1ccc(C)c(-c2cc(C(F)(F)F)nn2-c2ccc(S(N)(=O)=O)cc2)c1`: the activity change, negative = inhibition in assay [1] is -8.83%; in assay [2], -9.23%; in assay [3], -16.8%; in assay [4], -61.9%; in assay [5] it was -7.05%.

Regarding `CSCC(=O)N1CC[C@H](NC(=O)Nc2cccc(SC)c2)[C@H]1C(=O)N[C@H](Cc1ccccc1)C(N)=O`, the activity change, negative = inhibition is -2.87% in assay [1]; -5.05% in assay [2]; -0.662% in assay [3]; -7.51% in assay [4]; -3.08% in assay [5].

For `CCOc1ccc(CNS(=O)(=O)c2ccc3[nH]c4c(c3c2)CCCC4)cc1OC`, the activity change, negative = inhibition is -0.365% in assay [1]; 0% in assay [2]; -4.23% in assay [3]; -2.89% in assay [4]; -5.59% in assay [5].

Take `COCCNC(=S)N[C@H]1C[C@H]2C(=O)NC[C@@H](CCC(=O)NCc3ccccc3)N2C1`: the activity change, negative = inhibition in assay [1] was -8.09%; in assay [2], -6.66%; in assay [3] it was -5.95%; in assay [4], -7.2%; in assay [5], -4.81%.
